Source: PubChem BioAssay AID686978 (National Center for Advancing Translational Sciences (NCATS), 2013)
Out of some 420,000 compounds screened, about 64,000 (15%) were called active. Inconclusive means that the source gave no clear call. Such entries were picked first, then a sample of the others. Calls follow the shape of the dose curve; as a rule, active = well fitted inhibition curve with a large enough effect; inconclusive = small, poorly fitted or top-dose-only effect; inactive = flat fitted curve, though single readings scatter. No potency is given beside an inconclusive call; the fits are too rough.

Experiment: qHTS for Inhibitors of human tyrosyl-DNA phosphodiesterase 1 (TDP1): qHTS in cells in absence of CPT; also: nearly all actives have a fitted effect of over 55% in size
Details: DT40 Tdp1-/- hTDP1 cells, no CPT, ATP luminescence, 48 h; activity change, negative = growth inhibition: at 46.2 µM (top of the series) unless noted
Outline: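 Chicken DT40 Tdp1-/- cells complemented with human TDP1, screened without camptothecin (DMSO vehicle only), 400 cells/well. Compounds pin-transferred, cells incubated at 37 °C for at least 48 hr. Growth read as ATP-dependent luminescence (CellTiter-Glo, 30 min at RT).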
% is scaled to controls: 0 for no effect and ±100 for the full control effect; potency is read from the fitted curve at half-maximal effect; tags tell the direction and shape of the fitted curve.

Compound	Potency	activity change, negative = growth inhibition
Cc1cc(C)cc(Cn2c3ccc(NC(=O)NCc4ccccc4)cc3c(=O)n2C)c1	inconclusive [inhibitor, single point]	
Cc1ccc(OC2CCN(C(=O)C3CCC(=O)N(C4CC4)C3)CC2)cc1 (configuration not stated)	inactive	
Cc1c(C(=O)NCc2ccc(N(C)C)cc2)oc2c1-c1nn(Cc3cccc(Cl)c3)cc1CC2	inconclusive [inhibitor, single point]	
C/C(=N\NC(=O)c1ccccc1)C1C2C=CC(C2)C1(C)C (configuration not stated)	inconclusive [inhibitor, partial curve]	
COc1ccc(S(=O)(=O)N2CCC(C(=O)NCCC3=CCCCC3)CC2)cc1C		inconclusive: -30.2% [inhibitor]
C=CCN1C(=O)CN=C1Nc1cc(C)ccc1C	inactive	
CN(C)Cc1c(O)ccc2occ(C(O)c3ccccc3)c12 (configuration not stated)	inconclusive [inhibitor, single point]	
CCc1noc(C)c1C(=O)Nc1ccc(C#N)cc1		inconclusive: -18.1% [inhibitor]
O=C(CSc1nc2ccc([N+](=O)[O-])cc2[nH]1)NC1CCCC1	inconclusive [inhibitor, single point]	
Cc1cc2c(cc1S(=O)(=O)N1CCC(C)CC1)OCC(=O)N2	inconclusive [inhibitor, single point]	
COc1ccccc1OCCCC(=O)NC(C)c1ccccc1 (configuration not stated)	inactive	
Cc1ccc(NC(=O)CC2OC(=O)c3ccccc32)cc1S(=O)(=O)N1CCOCC1 (configuration not stated)	inactive	
O=C(N/N=C/C=C/c1ccccc1)c1cccnc1	inconclusive [inhibitor, single point]	
Cc1cccc2c1cnn2C(=O)CCC(=O)N1CC(C)CC(C)C1 (configuration not stated)	inconclusive [inhibitor, single point]	
COc1cccc(/C=N/NC(=O)C(=O)N/N=C/c2cccc(OC)c2O)c1O	active: 1.64 µM	
Cc1cc(-c2ccn[nH]2)c(C)s1	inactive	
Cc1ccc2nc(CCc3nc4ccc(C)cc4[nH]3)[nH]c2c1	inconclusive [inhibitor, single point]	
CC(C)(C)c1cc(-c2n[nH]c(=S)n2-c2ccccc2F)n[nH]1	inactive	
COc1ccc(-c2nc3cnc(OC)nc3n(Cc3ccc(F)cc3)c2=O)cc1	inactive	
Cc1cc(C)cc(NC(=O)Cn2c(=O)oc3cc(S(=O)(=O)N4CCCC4)ccc32)c1	active: 20.6 µM	
O=C(c1ccc(-c2ccccc2)c(F)c1)C1CCCN(CCCn2cccn2)C1 (configuration not stated)	inconclusive [inhibitor, single point]	
CCOc1ccc(NC(=O)CN(C)C(=O)C2CC(=O)N(c3ccc4c(c3)OCCO4)C2)cc1OCC (configuration not stated)	inactive	
CCOc1ccc(/C=N/O)cc1	inactive	
Cc1ccc(-c2nnc(SCC(=O)N3CCc4ccccc43)o2)cc1	inactive	

Compound	Potency	activity change, negative = growth inhibition
CCCN1CCN(CCCNC(=O)CCN2C(=O)COc3ccccc32)CC1	inactive	
Nc1ccccc1C(=O)NCC1(c2ccccc2)CCCC1	inconclusive [inhibitor, single point]	
CCNC(=O)C1(C)CCCN(Cc2cccc3c(OC)cc(C(=O)OCC)cc23)C1 (configuration not stated)	inconclusive [inhibitor, single point]	
COc1ccc(S(=O)(=O)c2cn(C)c3cc(N4CCCC4)c(F)cc3c2=O)cc1	active: 23.1 µM	
CCOC(=O)c1c(NC(=O)COC(=O)CNC(=O)c2ccco2)sc(C(C)=O)c1C	inactive	
CS(=O)(=O)Nc1cccc(C(=O)CC2(O)C(=O)Nc3ccccc32)c1 (configuration not stated)	inactive	
NC(=S)NN=C1c2ccccc2-c2c(F)c(F)c(F)c(F)c21	active: 11.6 µM	
CC(=O)Nc1ccc(-c2ccnc3c2CC(C)(C(=O)Nc2cccc(C(F)(F)F)c2)O3)cc1 (configuration not stated)	inconclusive [inhibitor, partial curve, poor fit]	
Cc1c2n(c3ccccc13)CCN(C)C2	inactive	
COc1cccc(CNC(=O)c2cnc(N3CCCC3)nc2C)c1	inactive	
CCOC(=O)C1=C(Cn2ccc(C(F)(F)F)n2)NC(=O)NC1c1ccc2c(c1)OCO2 (configuration not stated)	inconclusive [inhibitor, partial curve]	
COc1ccc2c(=O)cc(-c3ccncc3)oc2c1OC	inconclusive [inhibitor, single point]	
CCCN1C(=O)/C(=C/c2ccc(N3CCCC3)c(C)c2)NC1=S	active: 20.6 µM	
CC(=O)NCCOc1ccc2oc3ccccc3c2c1	inconclusive [inhibitor, single point]	
CCCNC(=O)NC(=O)CSc1nnc(-c2c[nH]c3ccccc23)o1	inconclusive [inhibitor, single point]	
Cc1cc(NC(=O)C(C)SCC(=O)N(Cc2ccccc2)c2ccccc2)no1 (configuration not stated)	inconclusive [inhibitor, single point]	
CCCn1c(O)c(N=NC(=O)c2ccco2)c2ccccc21	active: 11.6 µM	
O=S(=O)(c1ccc2ccccc2c1)n1nc(-c2ccco2)nc1NCc1cccc(Cl)c1	inconclusive [inhibitor, single point]	
Cc1ccc(C(=O)C2=C(O)C(=O)N(Cc3cccnc3)C2c2ccc(OC(C)C)cc2)o1 (configuration not stated)	inconclusive [inhibitor, partial curve]	
CC(C)CCNC(=S)Nc1ccccn1	active: 23.1 µM	
CCOc1ccc(NC(=O)C2CCCN(S(=O)(=O)c3c(C)n[nH]c3C)C2)cc1 (configuration not stated)	inconclusive [inhibitor, single point]	
CSCCC(NC(=O)c1ccco1)C(=O)N1CCN(c2ccccc2O)CC1 (configuration not stated)	inconclusive [inhibitor, single point]	
COc1cc2c(cc1OC)C(C)N(C(=O)Cn1ncc3c1-c1ccccc1OC3)CC2 (configuration not stated)	inconclusive [inhibitor, partial curve]	
Cc1ccccc1C(OCC(O)CN1CCCCC1CCO)c1ccccc1 (configuration not stated)	inconclusive [inhibitor, single point]	

Compound	Potency	activity change, negative = growth inhibition
O=C(Nc1ccc2c(c1)OCO2)Nc1cnccn1	inconclusive [inhibitor, single point]	
C=CCNC(=S)Nc1ccc(Br)cc1F	inconclusive [inhibitor, single point]	
COc1ccc2cc(CN(CC3COCCO3)S(=O)(=O)c3ccc(Cl)cc3)c(=O)[nH]c2c1 (configuration not stated)	inconclusive [inhibitor, partial curve, poor fit]	
CN=C(C)/C(C(=O)OC)=C(/O)c1ccc(Cl)cc1Cl	inconclusive [inhibitor, partial curve]	
CCOc1cc(CNCCSc2nnnn2-c2ccccc2)cc(Cl)c1OC	active: 20.6 µM	
CCOc1ccccc1NC(=O)C1CCCN(S(=O)(=O)c2ccc3c(c2)C(C)(C)C(=O)N3C)C1 (configuration not stated)	inconclusive [inhibitor, single point]	
Cc1nnc(SCC(=O)N2CCC(Cc3ccccc3)CC2)n(N)c1=O	inconclusive [inhibitor, single point]	
Cc1ccc(C(=O)CNc2ccccc2)cc1	inconclusive [inhibitor, single point]	
Cc1ccc(S(=O)(=O)/N=C2\C=C(Nc3cccc(C(=O)O)c3)C(=O)c3ccccc32)c(C)c1	inconclusive [inhibitor, single point]	
COc1ccc(-c2nc3cnc(Oc4cccc(Cl)c4)nc3n(C[C@H]3CCCO3)c2=O)cc1	inactive	
CSc1nsc(NC(=O)OCc2ccc(Cl)cc2)n1	inconclusive [inhibitor, single point]	
COc1ccc(-c2cc(-c3ccc(Br)cc3)nc3ncnn23)cc1OC	inconclusive [inhibitor, partial curve]	
CCOc1ccc(CCNC(=O)Cn2nnc(-c3ccc(OC)c(OC)c3)n2)cc1OCC	inconclusive [inhibitor, partial curve]	
COc1ccccc1NC(=O)C1=C(C)Nc2ncnn2C1c1ccc(C)o1 (configuration not stated)	inactive	
O=C(NCc1ccc(F)cc1)c1cc(S(=O)(=O)N2CCCCC2)ccc1N1CCOCC1	inconclusive [inhibitor, single point]	
Cc1ccc2nc(-c3ccc(NC(=O)COc4c(C)ccc(C)c4C)cc3)sc2c1	inconclusive [inhibitor, single point]	
COc1ccc(CC(=O)Nc2nnc(CC(C)C)s2)cc1S(=O)(=O)N1CCOCC1	inactive	
COc1cc2nc(NC(=O)c3ccc(F)cc3Cl)sc(=O)c2cc1OC	inactive	
COc1ccc(C)cc1N(CC(=O)Nc1cccc(N(C)S(C)(=O)=O)c1)S(C)(=O)=O	inconclusive [inhibitor, single point]	
CC(=O)Oc1oc(-c2ccccc2)nc1/C=N/c1ccccn1	active: 20.6 µM	
COc1cc(C=O)c(Br)cc1OC1CCCC1	inconclusive [inhibitor, partial curve]	
COc1cccc(CN2CCC2(C)C(=O)Nc2ccc(Cl)c(Cl)c2)c1F (configuration not stated)	inconclusive [inhibitor, single point]	
O=C(O)COc1ccc(/C=C/c2nc3ccc([N+](=O)[O-])cc3s2)cc1	inconclusive [inhibitor, single point]	
O=c1[nH]cnc2sc3c(c12)CN(Cc1ccccc1)CC3	inconclusive [inhibitor, single point]	
